Experiments:
[1] = test system: LPS-stimulated RAW 264.7 macrophages; experiment: ●NO levels in cell culture medium (Griess reaction); assay type: cell-based, murine; conditions: for concentrations giving a significant reduction in ●NO levels in cell culture medium: 1 h pre-treatment, 23 h co-treatment with LPS 0.3 µg/mL; for reduction in ●NO levels: concentration range 12.5–25 µM
Experimental: The effect of compounds on ^●NO levels in culture medium of LPS-activated macrophages was determined by measuring the nitrites through the Griess reaction, as previously described. […] After 24 h, cells were pre-treated with non-toxic concentrations of compounds or media (control) for 1 h and then co-incubated with LPS solution (0.3 µg/mL) for an additional 23 h. […] The results were expressed as % of ^●NO production by cells exposed to LPS and correspond to the mean ± SEM of four independent assays, each performed in triplicate. Quercetin was used as the positive control.

[2] = test system: non-activated RAW 264.7 macrophages; conditions: for effect on cell viability (MTT reduction): non-activated RAW 264.7, 24 h exposure, 0 to 100 µM
[3] = test system: LPS-stimulated RAW 264.7 macrophages; experiment: L-citrulline levels in extracellular medium (diacetyl monoxime/antipyrine colorimetric method); assay type: cell-based, murine; conditions: for decrease in cellular production of L-citrulline (released during 3 h): highest tested concentration (100 µM), HBSS + 200 µM L-arginine
Experimental: (§1) L-citrulline was quantified by a colorimetric method that takes advantage of the ureido group-specific reaction with diacetyl monoxime/antipyrine in the presence of sulfuric acid, using cell assay conditions that avoid the interferences promoted by the serum proteins and pH indicator present in cell culture medium. […] Afterward, the culture medium was removed, cells were washed three times with HBSS before being incubated with HBSS supplemented with 200 µM of L-arginine (300 µL/well) for an additional 3 h. Then, the extracellular medium of each well was collected and used to assess the ^●NO and L-citrulline released by cells. 75 µL were used to quantify the ^●NO levels by using Griess reagent, as described above. For L-citrulline quantification, 250 µL extracellular medium were mixed with 1250 µL of chromogenic reactional solution (40% (v/v) of 79 mM diacetyl monoxime in 83 mM of acetic acid, 18% (v/v) of 47.8 mM antipyrine E in H2O and 42% (v/v) of 7.5 M sulfuric acid). […] Quercetin was used as the positive control.

[4] = test system: LPS-stimulated RAW 264.7 macrophages; experiment: ●NO levels in extracellular medium after 3 h in HBSS + L-arginine; assay type: cell-based, murine; conditions: highest tested concentration (100 µM), HBSS + 200 µM L-arginine
Experimental: as §1

Row | Compound | concentrations giving a significant reduction in ●NO levels in cell culture medium [1] [µM] | reduction in ●NO levels ([1]; p < 0.05) | effect on cell viability (MTT reduction) [2] | effect on amount of L-citrulline generated by LPS-stimulated macrophages ([3]; 12.5 µM) | decrease in cellular production of L-citrulline (released during 3 h) [3] | decrease in cellular production of ●NO (released during 3 h) [4] | concentrations exhibiting cell toxicity (significant decrease in cell viability) [2] [µM] | decrease in ●NO levels in cell culture medium ([1]; at 25 µM, p < 0.05)
1 | C/C=C(/C=O)[C@@H](CC=O)CC(=O)OCCc1ccc(O)c(O)c1 [oleacein] | ≥ 12.5 | up to 25% | do not alter the viability | significantly decreased | about 50% | about 50% |  | 
2 | CC(=O)OCCc1ccc(O)c(O)c1 [AcHyTy, hydroxytyrosol acetate] | ≥ 12.5 | up to 25% |  |  | ~20% | ~20% | ≥ 50 | 
3 | OCCc1ccc(O)c(O)c1 [HyTy, hydroxytyrosol] | ≥ 25 | up to 25% | do not alter the viability |  | about 50% | about 50% |  | ~ 20%

From article PMC9687571, “Anti-Inflammatory Activity of Olive Oil Polyphenols—The Role of Oleacein and Its Metabolites” (Biomedicines, 2022)
